Laboratory results from PubChem BioAssay AID493208 (National Center for Advancing Translational Sciences (NCATS), 2011).
In all, about 44,000 compounds went through this assay and about 340 (0.77%) were called active. Roughly 5% stayed inconclusive and do not appear here. Calls follow the shape of the dose curve; as a rule, active = well fitted inhibition curve with a large enough effect; inconclusive = small, poorly fitted or top-dose-only effect; inactive = flat fitted curve, though single readings scatter. Some of the results follow.

assay: Acumen qHTS Assay for Inhibitors of the mTORC1 Signaling Pathway in MEF (Tsc2-/-, p53-/-) Cells: Sytravon; conditions: phospho-rpS6 immunofluorescence/PI, 24 h; series mostly up to 38.3 µM; activity change, negative = inhibition: at the top concentration;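 also: plate controls were DMSO for no effect and rapamycin for full effect; nearly all actives have a fitted effect of over 50% in size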
How it was run: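 Tsc2-/-, p53-/- MEFs (empty-vector stable line) in DMEM + 10% FBS were treated with compounds 24 h at 37 degree Celsius, fixed, and immunostained for phospho-rpS6 (Alexa-488) with propidium iodide counterstain. Laser-scanning cytometry gave % positive cells, normalized against 7.5 nM rapamycin and DMSO.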

| SMILES | activity change, negative = inhibition |
| --- | --- |
| COc1ccc2c(CNCCc3ccco3)c(C(=O)O)n(Cc3ccc(F)cc3)c2c1 | inactive: -6.98% |
| CCn1cc(C(=O)NCc2ccc(Cl)cc2)c(=O)c2cc(S(=O)(=O)N3CCc4ccccc4C3)ccc21 | inactive: -1.3% |
| CC(=O)Nc1nonc1-c1nnc(SCC(=O)Nc2c(C)cccc2C)n1-c1ccccc1 | inactive: 1.54% |
| COc1ccc(OC)c(N(C)S(=O)(=O)c2ccc3c(c2)NC(=O)CC(=O)N3)c1 | inactive: -1.25% |
| COc1ccc(C)cc1NC1(c2ccccc2)C(=O)c2ccccc2C1=O | inactive: 5.01% |
| COc1ccc2nc(N3CCN(C(=O)CS(=O)(=O)c4ccc(C)cc4)CC3)sc2c1 | inactive: -6.57% |
| Cc1ccccc1NC(=O)c1sc2nc3n(c(=O)c2c1C)N=C(c1ccccc1)CS3 | inactive: -12.2% |
| CN(C)c1ccc(NC(=O)CC(NCc2cccnc2)C(=O)O)cc1 (configuration not stated) | inactive: -5.27% |
| COc1ccc(-n2ccn3c(CC(C)(C)CC(=O)O)nnc3c2=O)cc1 | inactive: 3.81% |
| COc1cccc(CNc2sc3c(c2C(=O)Nc2ccc(OC)cc2OC)CCC3)c1 | inactive: -4.27% |
| Cc1ccc(NC(=O)CCCn2c(=O)c3cccn3c3cccnc32)c(C)c1 | inactive: -2.55% |
| CCC(Sc1nc2nccnc2c(=O)n1Cc1ccc(Cl)cc1)C(=O)NC1CCCCC1 (configuration not stated) | inactive: 10.2% |
| O=c1c(-c2cc(-c3ccccc3)nc3c2COc2ccc(Cl)cc2-3)coc2ccccc12 | inactive: -16.8% |
| Cc1ccc(-c2cnc(C3CC3)o2)cc1S(=O)(=O)Nc1ccc(F)cc1Cl | inactive: -0.627% |
| CC(C)CNC(=O)C(=O)Nc1c2c(nn1-c1ccc(Cl)cc1)CSC2 | inactive: -12.7% |
| CC(=O)c1ccc(NC(=O)CSc2nccn2C2CCCC2)cc1 | inactive: -3.91% |
| Cc1cccc(N2CCN(c3ccc4cc(S(=O)(=O)N5CCC(C)CC5)ccc4n3)CC2C)c1 (configuration not stated) | inactive: 3.17% |
| COc1ccc(S(=O)(=O)NC(C)(C)CO)cc1-c1nnc2c3ccccc3c(C)nn12 | inactive: 4.1% |
| O=c1c(N2CCN(c3ccc(F)cc3)CC2)csc2ccc(F)cc12 | inactive: 2.78% |
| CCOc1ccc(NC(=O)CSc2nc3ccccc3nc2N2CCOCC2)cc1 | inactive: 0.127% |
| COc1ccc(CNC(=O)c2cc3cccc4c3n2CC(C)S4)cc1 (configuration not stated) | inactive: 1.57% |
| CCCn1c(=O)c2sccc2n2c(CCCC(=O)N3CCN(c4ccc(OC)cc4)CC3)nnc12 | inactive: -2.28% |
| CC(C)CC(=O)Nc1cccc(-c2cn3cccnc3n2)c1 | inactive: 0.107% |
| Cc1nn(-c2cccc(Cl)c2)c2nc(-c3cccnc3)cc(C(F)(F)F)c12 | inactive: 1.8% |
| CCOCCCNC(=O)CN1C(=O)COc2ccc(S(=O)(=O)N3CCOCC3)cc21 | inactive: -15% |

| SMILES | activity change, negative = inhibition |
| --- | --- |
| COc1ccc(-c2cc(C(F)(F)F)nc(SCCC(=O)Nc3ccc(F)cc3F)n2)cc1 | inactive: -2.75% |
| O=C(CSc1ccc2nc(-c3ccccc3)cn2n1)Nc1ccccc1 | inactive: -1.76% |
| O=C(Nc1ccc(F)cc1F)c1ccc(-n2cnc3cccnc32)cc1 | inactive: -5.56% |
| COc1ccc(N(C)C(=O)c2oc(=O)c3ccccc3c2-c2ccc(C)cc2)c(OC)c1 | inactive: -5.19% |
| N#Cc1c(-n2ncnc2-c2ccccc2Cl)sc2c1CCCCC2 | inactive: -3.98% |
| COc1ccc(N2CCN(C(=O)CCCCn3c(=O)[nH]c4ccsc4c3=O)CC2)cc1 | inactive: 6.63% |
| Cc1ccc(CNC(=O)CCc2c(C)c3cc4c(C)coc4cc3oc2=O)cc1 | inactive: -11.9% |
| COC(=O)c1c(SCC(=O)Nc2ccccc2C(F)(F)F)[nH]c2ccc(Cl)cc2c1=O | inactive: -3.39% |
| CC(C)c1ccc(CNC(=O)c2ccc(N3CCCC3)c(NC(=O)NCc3ccc(F)cc3)c2)cc1 | inactive: 0% |
| CCOC(=O)C1CCN(C(c2ccc(C)cc2)c2sc3nc(-c4ccco4)nn3c2O)CC1 (configuration not stated) | inactive: 0.881% |
| CCOc1ccc(/C=C(\C#N)C(=O)Nc2sc3c(c2C(=O)OC)CCC3)cc1OC | inactive: -2.16% |
| Cc1cccc(Nc2cc(C)nc3nc(-c4ccccc4)nn23)c1 | inactive: -4.44% |
| CC1=C(C(=O)Nc2cccc(F)c2)C2(CCCCC2)OC1=O | inactive: -0.0305% |
| COc1ccc(OC)c(NC(=O)c2cc3cccc(OC)c3oc2=O)c1 | inactive: 1.05% |
| CCCNC(=O)c1ccc(Cn2c(SCC(N)=O)nc3ccccc3c2=O)cc1 | inactive: -0.451% |
| CCOc1ccccc1C(=O)N1CCc2cc(OC)c(OC)cc2C1COc1ccc(OC)cc1 (configuration not stated) | inactive: 3.55% |
| Cc1ccc(-c2nc3cccc(C)n3c2Nc2ccc3c(c2)OCO3)o1 | inactive: 1.1% |
| COc1cccc(CNC(=O)Cn2ncn3c(cc4ccccc43)c2=O)c1 | inactive: -1.99% |
| Cc1nn(-c2ccccc2)c(OC(=O)c2ccc(Cl)cc2)c1S(=O)(=O)c1ccccc1 | inactive: 1.49% |
| CCC(=O)Oc1c(Sc2ccc(C)cc2)c(C)nn1-c1ccccc1 | inactive: -0.427% |
| COc1ccc(CNS(=O)(=O)c2cc3c(cc2Cl)NC(=O)CO3)cc1 | inactive: -2.95% |
| O=C(c1cc(-c2ccc(Br)cc2)n[nH]1)N1CCN(S(=O)(=O)c2ccc(Cl)s2)CC1 | inactive: -3.75% |
| CC(C)CC(=O)Nc1ccc2nc(SCC(=O)N3CCOCC3)sc2c1 | inactive: -6.79% |
| COCCCn1c(SCC(=O)Nc2ccc(OC)cc2)nc2c(sc3ccccc32)c1=O | inactive: -5.03% |
| O=C(CSc1nc(=O)n(CCN2CCOCC2)c2c1CCC2)Nc1ccc(F)cc1F | inactive: -1.11% |

| SMILES | activity change, negative = inhibition |
| --- | --- |
| CCOC(=O)c1cc(-c2ccc(F)cc2)n(CCC(=O)Nc2cc(OC)cc(OC)c2)c1C | inactive: -6.09% |
| Cn1c(=O)c2c(nc(N3CCOCC3)n2Cc2ccccc2F)n(C)c1=O | inactive: -2.26% |
| O=C(CSc1nc2ncccc2o1)Nc1ccc(Cl)cc1F | inactive: -4.66% |
| O=C(Nc1ccccc1C(F)(F)F)C1CCN(S(=O)(=O)c2ccccc2)CC1 | inactive: -0.986% |
| COc1cc(C2c3c(-c4cc(C)ccc4O)n[nH]c3C(=O)N2Cc2ccco2)cc(OC)c1OC (configuration not stated) | inactive: 8.22% |
| COC(=O)CSc1nc2sc3c(c2c(=O)n1-c1ccccc1)C(C)CCC3 (configuration not stated) | inactive: 0.881% |
| CC(C)Oc1ccc(C(=O)Nc2nnc3n2CCS3)cc1 | inactive: -3.56% |
| O=C(Cn1cc(SCc2ccc(Cl)cc2)c2ccccc21)N1CCOCC1 | inactive: -4.48% |
| COc1ccc(NC(=O)CSc2nc3ccccc3n2CC(=O)N(C)C2CCCCC2)cc1 | inactive: 5.15% |
| COc1ccc(NC(=O)c2cc(S(=O)(=O)N3CCCC(C)C3)cn2C)c(OC)c1 (configuration not stated) | inactive: 1.42% |
| Cc1cc(Cl)ccc1NS(=O)(=O)c1c(C(=O)N2CCCCCC2)c(C)n(C)c1C | inactive: 0% |
| Cc1ccc(C)c(Cn2c3ccccc3c3cnn(CC(=O)NC4CCCCCC4)c(=O)c32)c1 | inactive: -0.334% |
| Cc1ccc(-c2c3c(=O)n(C)c(=O)n(C)c3c3c(-c4cccc(C)c4)nc4ccccc4n23)cc1 | inactive: -7.39% |
| COC(=O)c1ccccc1NC(=O)c1ccc2c(c1)CCN2S(=O)(=O)c1ccc(Cl)cc1 | inactive: 2.04% |
| Cc1cc(C)c(S(=O)(=O)NCC2CCC(C(=O)NCCc3ccccc3)CC2)c(C)c1 (configuration not stated) | inactive: -5.31% |
| O=c1n(Cc2ccccc2)nc2n1-c1cc(Cl)ccc1OC2 | inactive: -38.9% |
| Cc1c2cnn(-c3ccccc3)c(=O)c2c(C)n1CCCC(=O)Nc1cccc(F)c1 | inactive: -5.11% |
| Cc1c(Cl)cccc1NC(=O)CSc1nc(=O)[nH]c2c1CCC2 | inactive: -0.0524% |
| O=S(=O)(c1cccc(Cl)c1)n1c(/C=C/c2ccccc2Cl)nc2ccccc21 | inactive: -10.6% |
| COc1ccc(CN(Cc2ccco2)C(=O)COc2ccccc2Cl)cc1 | inactive: -1.55% |
| COc1ccc(-c2cc(OC(=O)c3cccc(Cl)c3)c3c(C)oc(C)c3c(=O)c2)cc1OC | inactive: -5.84% |
| CC(NS(=O)(=O)c1ccc2c(c1)CCN2C(=O)CCCC(=O)O)c1ccccc1 (configuration not stated) | inactive: 1.2% |
| N#Cc1nc(/C=C/c2ccc(F)cc2)oc1N1CCCCCC1 | inactive: 2.33% |
| CCN(CC)c1ccc(NC(=O)Cn2nc3c(cc2=O)CCCC3)c(C)c1 | inactive: -11.8% |
| CCc1c(C)sc(NC(=O)c2cc3nc(-c4ccc(OC)cc4)cc(C(F)(F)F)n3n2)c1C(=O)OC | inactive: -10.6% |

| SMILES | activity change, negative = inhibition |
| --- | --- |
| COc1cc(OC)cc(C(=O)N2CCN(C(=O)COc3ccc(C)cc3)CC2)c1 | inactive: -7.24% |
| COc1cccc(-n2c(SCC(=O)Nc3ccc4c(c3)OCO4)nc3c([nH]c4ccccc43)c2=O)c1 | inactive: 3.5% |
| Cc1ccccc1NC(=O)CSc1nc(-c2cccs2)nc2cc(=O)[nH]n12 | inactive: 5.91% |
| COc1ccc(-n2nc(C(=O)Nc3cc(C)c(Cl)cc3OC)c3c4ccccc4n(C)c3c2=O)cc1 | inactive: -3.18% |
| Cn1ccc2cc(S(=O)(=O)N3CCCC(C(=O)NCc4ccccc4F)C3)ccc21 (configuration not stated) | inactive: -12% |
| Cc1ccccc1-c1nc(CNC(=O)NC2CCCCC2)c(C)o1 | inactive: 10.5% |
| CC(C)c1ccc(C2CC(=O)N3CN(C4CCCCC4)CSC3=C2C#N)cc1 (configuration not stated) | inactive: -1.06% |
| COc1ccc(-n2ncc3c2ncn2nc(-c4ccc(OC)c(OC)c4)nc32)cc1 | inactive: -1.01% |
| CC1=C(C(=O)Nc2ccccc2)C(c2ccc(Br)cc2)n2nc(CCCO)nc2N1 (configuration not stated) | inactive: 0.457% |
| CCCc1cc(=O)[nH]c(Nc2cc(Cl)cc(Cl)c2)n1 | inactive: -0.0488% |
| COc1ccccc1N1CCN(C(=O)c2nn(C)c3c2CS(=O)(=O)c2ccccc2-3)CC1 | inactive: -1.03% |
| COc1cccc(CNC(=O)CN2C(=O)COc3ccc(S(=O)(=O)N4CCCCC4)cc32)c1 | inactive: -4.41% |
| CCn1cc2nc(SCc3cc(C)ccc3C)n(Cc3ccc(Cl)cc3)c(=O)c2n1 | inactive: 0% |
| Cc1nn(Cc2ccc(F)cc2)c(C)c1NC(=O)c1noc2c1CCc1ccccc1-2 | inactive: -2.77% |
| Cn1cc(S(=O)(=O)N2CCCC2)cc1C(=O)Nc1ccc(F)cc1F | inactive: 7.13% |
| CCOC(=O)c1ccc(NC(=O)Cc2noc3ccc(C)cc23)cc1 | inactive: 3.44% |
| Cc1ccc(-c2nc3sc(CCNC(=O)c4ccc(F)c(F)c4)c(C)n3n2)cc1 | inactive: -6.03% |
| CC1=C(C(=O)Nc2ccccc2Br)C2(CCC(C)CC2)OC1=O (configuration not stated) | inactive: 1.72% |
| CCCCC12CN3CC(C)(CN(C1)C3c1ccc(OCc3ccccc3)cc1)C2=O (configuration not stated) | inactive: 0.921% |
| Cc1ccc(CNC(=O)CCCCCn2c(=O)c3sccc3n(CC(=O)N3CCCCC3C)c2=O)cc1 (configuration not stated) | inactive: 2.39% |
| O=C(C1CCN(S(=O)(=O)c2cccs2)CC1)N1CCN(c2ccccc2F)CC1 | inactive: -10.1% |
| CCC(CC)C(=O)Nc1ccc(S(=O)(=O)N2CCC(c3nc4ccccc4s3)CC2)cc1 | inactive: 0.942% |
